Values marked as one replicate rest on one cluster of the flow cell; about a third of the high ones do not repeat.
System: ATP
Experiment: switch fluorescence ratio, 500 uM ATP over buffer (Cy3 cluster intensity, sum of 5 cycles each) (fold (ratio)); higher = stronger signal-on switching upon ATP binding; sequences stand for … in TCGTCGGCAGCGTCAGATGTGTATAAGAGACAGTTTTTTTTTTTTTTTTTTTTTTTTT…TC
Details: aptamer strand: ATP DNA aptamer (quencher-CACCTGGGGGAGTATTGCGGAGGAAGG + anchor), 100 nM annealed; ATP concentration: 500 uM; one replicate
Summary of the method: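 Imaging in selection buffer was followed by imaging after 15 min with 500 uM ATP at 22 °C, for Cy3-labelled switching-strand clusters annealed to 100 nM quencher-labelled ATP aptamer on a modified Illumina MiSeq flow-cell. Five of these buffer/ATP cycles ran, separated by NaOH stripping and re-annealing. The fluorescence ratio per cluster is summed target-cycle over summed buffer-cycle Cy3 intensity, averaged per switch-domain sequence; clusters outside 100-1000 RFU were removed.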
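Further: ATP exposure 15 min at 22 °C before imaging.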

Sequence	switch fluorescence ratio
AATGGTCTAG	0.985
ATAGGTATAG	0.998
TAAGCAACGG	1.09
TCGGATTAAA	1.01
CTCCTTAGTG	0.956
CAGAACTGTT	0.991
TCCCTGAACT	1.01
GCGATAGCCT	0.987
ATTGTGGACA	0.973
TGGAAAGCGA	1.03
GGAGTTGCAT	0.96
GGTACTCGGA	0.955
CAGTGTTCCA	1.01
ATGTTGAAGA	0.961
CATCCAGACA	1.04
GAATAGACGG	1.01
CCACGGGGCG	1.02
CGTCCTAGAA	1.01
TCGCATAG	2.63
ATGCAATAAC	2.71
TGATTTGGTG	1.03
TTCTGCATGG	0.993
CCATAGGGAG	1.02

Sequence	switch fluorescence ratio
GCAAAATGTT	1.01
AGTTAGGGG	0.979
GCTTACTGAT	1.02
CCAGCGCTA	3.68
GCCTACGAGG	1.08
CCCCTTGGC	1.08
TATACCGCGT	1.22
TTCGTTTGGA	1
ATACTGCTGG	1.05
AGTCATCTAT	0.972
TTGAGCATCG	1.02
TCGGTACCGT	0.99
GAGTAGGTAT	1.02
ATGACTGTAA	1.05
CTTGTCCAAA	0.991
ACTATATATT	1.06
ACGTTCAAGC	1.14
AGTTCGTGA	0.968
TGTAACCATG	0.948
GGTAGTTACC	1.02
TCTGACAACG	1
TCAAAGTCTG	0.986
TGGTGGGAAC	0.957

Sequence	switch fluorescence ratio
TCTAAGCCCC	1.01
TTGTAGGTAG	1.02
TATGTCCTCT	1.03
AGTACGTCAT	1.11
ACTTTCAACC	1.15
GCAAAGAGGA	1.02
TGCAACTTGA	0.971
TGCCGTATTG	1
TACGGGGGT	0.992
CCGCGGTAGC	1.98
GATTCCCTG	0.99
CCAGGGAGGA	1.04
GGTAAATAAC	1.03
TCAGTTGGCG	0.994
CTGGGTACAG	0.994
GCTAGGGAGT	1.01
CAAAGCCGTT	1.09
GATCAAAATG	0.983
AGCCCTGTAT	0.99
TCATTGTAGG	0.982
AGTGAAAAAA	1.02
CGCTTGGTCC	1.31
TGTTGACGAG	0.996

Sequence	switch fluorescence ratio
GTTTCCAGAC	1.02
TGCTACCATC	1.07
TGACGTCTTA	1
GAGTTGCCTT	0.949
CTCTCTTGTG	0.987
GTCCCGGAAT	1.45
TAACGGTAC	1.64
ACGGTGCTTT	1.11
AACAACCCGT	1.03
GATTCTCGTC	1.01
GACAGGCTCA	1.02
GCCGAAAAGC	1.14
TCTGTGTGCA	0.951
CGGAGGAGAT	1.04
ACGGAAACT	1.12
CGTCGGCAGT	1.43
TGACTTATAA	1.03
ACCGCCGAGA	0.998
GCATGGATTA	0.991
GTACTGCAGC	1.02
CGGGTATTG	0.981
TAAAGAGGAT	1.01
CATTTGACTT	1.02

Sequence	switch fluorescence ratio
TGTCGAATGT	0.97
TTCCAGTATC	1.05
GAGGTTCAT	1.02
CGGGTCGCTG	1.02
AACGTTGTG	1
GCTACCCGAA	0.977
ATTGTGTCGT	0.978
CGCAACTGCT	2.36
GTGTTAAAGT	1.02
TATAATCTAC	1.01
GATGCACATC	1.07
ACGGACGGAC	1.36
TTCCTGCGTA	1.07
TTTCCGTTAG	1.05
CTGTATGATT	0.906
GTTTTGAGGA	1.01
TATGAAGAGC	0.996
AGCGGCATTT	1
TTCAATACGA	1.61
ACGTGCACGT	0.986
CTAGCTCCGG	1.1
ACGGTTTAGC	0.999
TCACCGCGGT	1.09

Sequence	switch fluorescence ratio
CCACTACTCA	1.21
CGGGGCAGGC	0.785
GAGTGCATTC	1
TAGGACCAGG	1.03
CTGGGGTAAA	0.985
AGGAATTCAA	1.03
CAGGTGGGTT	0.973
ACGAGGGCAG	1.03
TAACTCTACT	1.15
ACAGAGGTCC	0.999
AAACTGTGGC	1.06
TTACAATGAA	1
AAGTTATGA	0.994
CAAAACCATC	1.12
TCGAGTAGAG	1.02
TTCATGGGCC	1.08
ACGTCTAACA	1.32
GACATCCGT	1.01
CCCTTCATAC	3.66
TCAATGAATT	1.01
CCATTTCAGA	1.02
AGCGCATGGA	1.04
ATAGAAAAGG	1.02

Sequence	switch fluorescence ratio
TGCGTGCCTA	1.03
CTGATCCTTC	1.1
GTCCGCAACG	3.55
GATTATGGGA	0.987
CGAGTCGAT	0.964
TTCATTCAGG	1.02
CGATGTGCT	0.984
TTGGTAGCCA	1.01
GTCTATGGTA	1.02
CTACTAAATG	0.939
GAATGAGGTA	1.01
AATTATCAGG	0.97
CGCTATTCGA	1.14
TTTCTCTCAC	1.09
GTGTAAGTGC	1
TTACCTCTGT	1.01
CTAGCTGGCA	0.985
GGAATATGGG	0.993
ATGGTCGTGT	1.01

— the supplement of paper PMC10126150
